# The whole screen tested about 2,000 compounds, of which about 110 (5.5%) showed an effect of 50% or more. This is one part of the list.
# Biological target: Genome polyprotein (dengue virus type 2) (UniProt P29990)
# [1] = Thailand/16681/1984, Concentration 25.0 uM, Number of replicates 1.0
smiles,measurement,setting,value
Cc1cnccc1NC(=O)c1cccn(CC(C)C)c1=O,inhibition,"Thailand/16681/1984, Concentration 49.5 uM, Number of replicates 2.0, Standard deviation 0.778042961803475 %",5.85%
same,inhibition,"Thailand/16681/1984, Concentration 99.01 uM, Number of replicates 2.0, Standard deviation 0.8584470104698897 %",10.9%
same,inhibition,"Thailand/16681/1984, Concentration 198.0 uM, Number of replicates 2.0, Standard deviation 0.9860352989812204 %",17.9%
O=C(c1ccc2c(c1)B(O)OC2)N1CCN[C@H](c2ccc(Cl)cc2)C1,inhibition,"Thailand/16681/1984, Concentration 49.5 uM, Number of replicates 2.0, Standard deviation 1.1051975895382533 %",-1.33%
same,inhibition,"Thailand/16681/1984, Concentration 99.01 uM, Number of replicates 2.0, Standard deviation 0.5109273627094355 %",-1.22%
same,inhibition,"Thailand/16681/1984, Concentration 198.0 uM, Number of replicates 2.0, Standard deviation 0.04393612974415127 %",-0.309%
Cc1cc(CO)c2cccc(Cc3ccccc3C(=O)N[C@@H](CCN)C(=O)O)c2n1,inhibition,"Thailand/16681/1984, Concentration 49.95 uM, Number of replicates 2.0, Standard deviation 1.520667397992335 %",-7.13%
same,inhibition,"Thailand/16681/1984, Concentration 99.9 uM, Number of replicates 2.0, Standard deviation 0.9349661312279641 %",2.52%
COc1cc(CNC(=O)C2CCN(c3ccc(C=O)cc3)CC2)ccc1O,inhibition,[1],14.1%
Cc1cc(CO)c2cccc(Cc3cccc(C(=O)N4CC[C@@H](O)C4)c3)c2n1,inhibition,"Thailand/16681/1984, Concentration 49.95 uM, Number of replicates 2.0, Standard deviation 0.8940031033980441 %",-6.42%
same,inhibition,"Thailand/16681/1984, Concentration 99.9 uM, Number of replicates 2.0, Standard deviation 1.7851314545528572 %",-4.22%
CS(=O)(=O)c1ccc(N2CCNCC2)cc1NC(=O)c1cccc2ncccc12,inhibition,"Thailand/16681/1984, Concentration 49.5 uM, Number of replicates 2.0, Standard deviation 1.471415223025232 %",-1.91%
same,inhibition,"Thailand/16681/1984, Concentration 99.01 uM, Number of replicates 2.0, Standard deviation 0.5882879031511815 %",-1.35%
same,inhibition,"Thailand/16681/1984, Concentration 198.0 uM, Number of replicates 2.0, Standard deviation 4.6321298294521 %",0.843%
O=Cc1ccc(N2CCC(C(=O)Nc3cncc(Br)c3)CC2)cc1,inhibition,[1],14.1%
COc1cc(F)c(CNC(=O)C2CCN(c3ccc(C=O)cc3)CC2)c(F)c1,inhibition,[1],7.48%
CCc1n[nH]c([C@H]2CN(C(=O)c3cn([C@H]4CCCNC4)nn3)CCO2)n1,inhibition,"Thailand/16681/1984, Concentration 49.5 uM, Number of replicates 2.0, Standard deviation 1.2173915519701617 %",-0.434%
same,inhibition,"Thailand/16681/1984, Concentration 99.01 uM, Number of replicates 2.0, Standard deviation 1.8302492765621325 %",0.688%
same,inhibition,"Thailand/16681/1984, Concentration 198.0 uM, Number of replicates 2.0, Standard deviation 1.732441824768054 %",2%
CCn1ccnc(N2CC[C@@H](CC#N)C2)c1=O,inhibition,"Thailand/16681/1984, Concentration 49.5 uM, Number of replicates 2.0, Standard deviation 0.07238670655527837 %",6.13%
same,inhibition,"Thailand/16681/1984, Concentration 99.01 uM, Number of replicates 2.0, Standard deviation 0.5796358295014711 %",13.9%
same,inhibition,"Thailand/16681/1984, Concentration 198.0 uM, Number of replicates 2.0, Standard deviation 0.36138798396926686 %",24.9%
Cc1cc(CO)c2cccc(NC(=O)Cc3nnc(C)[nH]3)c2n1,inhibition,"Thailand/16681/1984, Concentration 49.95 uM, Number of replicates 2.0, Standard deviation 1.6214486049767967 %",10.4%
same,inhibition,"Thailand/16681/1984, Concentration 99.9 uM, Number of replicates 2.0, Standard deviation 3.3969341631920567 %",17.9%
CC(C)Nc1nc2ccc(C(=O)Nc3nc4ccc(F)cc4[nH]3)cc2[nH]1,inhibition,"Thailand/16681/1984, Concentration 49.5 uM, Number of replicates 2.0, Standard deviation 1.1088949771416101 %",-0.826%
same,inhibition,"Thailand/16681/1984, Concentration 99.01 uM, Number of replicates 2.0, Standard deviation 1.531680896343838 %",0.77%
same,inhibition,"Thailand/16681/1984, Concentration 198.0 uM, Number of replicates 2.0, Standard deviation 0.7658399318730248 %",10.6%
Cc1cc(CO)c2cccc(Cc3ccccc3C(=O)NCCN3CCOCC3)c2n1,inhibition,"Thailand/16681/1984, Concentration 49.95 uM, Number of replicates 2.0, Standard deviation 0.8235750873336125 %",-0.922%
same,inhibition,"Thailand/16681/1984, Concentration 99.9 uM, Number of replicates 2.0, Standard deviation 1.065042095325802 %",4.91%
COc1ccccc1N1CCN(C(=O)C2CCN(c3ccc(C=O)cc3)CC2)CC1,inhibition,[1],12.1%
CN(Cc1csc(-c2ccccc2)n1)C(=O)C1CCN(c2ccc(C=O)cc2)CC1,inhibition,[1],12.4%
O=C1Nc2c(Br)cccc2C[C@@]12CCCN2,inhibition,"Thailand/16681/1984, Concentration 49.5 uM, Number of replicates 2.0, Standard deviation 0.4152261996696888 %",-1.46%
same,inhibition,"Thailand/16681/1984, Concentration 99.01 uM, Number of replicates 2.0, Standard deviation 0.41139918153120264 %",-1.6%
same,inhibition,"Thailand/16681/1984, Concentration 198.0 uM, Number of replicates 2.0, Standard deviation 0.7673074219179014 %",-0.252%
O=Cc1ccc(N2CCC(C(=O)Nc3ccc(OCc4ccccn4)c(Cl)c3)CC2)cc1,inhibition,[1],12.2%
C#CCN(Cc1ccc(C)cc1)C(=O)C1CCN(c2ccc(C=O)cc2)CC1,inhibition,[1],13.9%
Cc1cccc(C)c1OC[C@H](C)NC(=O)C1CCN(c2ccc(C=O)cc2)CC1,inhibition,[1],6.86%
O=C1NCc2ccccc2C12CCN(C1CS(=O)(=O)C1)CC2,inhibition,"Thailand/16681/1984, Concentration 49.5 uM, Number of replicates 2.0, Standard deviation 0.8986864822779989 %",-0.528%
same,inhibition,"Thailand/16681/1984, Concentration 99.01 uM, Number of replicates 2.0, Standard deviation 0.5142855155974841 %",-0.402%
same,inhibition,"Thailand/16681/1984, Concentration 198.0 uM, Number of replicates 2.0, Standard deviation 1.1804213295415233 %",-0.795%
O=Cc1ccc(N2CCC(C(=O)NC[C@H](O)COc3ccccc3)CC2)cc1,inhibition,[1],13.5%
COc1cc(NC(=O)C2CCN(c3ccc(C=O)cc3)CC2)cc(OC)c1,inhibition,[1],16%
O=Cc1ccc(N2CCC(C(=O)N[C@@H]3CCCN(Cc4ccccc4)C3)CC2)cc1,inhibition,[1],13.3%
COc1ccc2ccccc2c1CCNC(=O)C1CCN(c2ccc(C=O)cc2)CC1,inhibition,[1],15.9%
